Reference: ChEMBL document CHEMBL4888484, “Replenishing the malaria drug discovery pipeline: Screening and hit evaluation of the MMV Hit Generation Library 1 (HGL1) against asexual blood stage Plasmodium falciparum ,using a nano luciferase reporter read-out” (2022)
The whole screen tested about 150,000 compounds, of which about 540 (0.36%) showed an effect of 50% or more. The list shows a part of the results.

The molecules below were run on Plasmodium falciparum (assay: Primary screen in NF54 nanoGlo assay, in single point, at 2uM, 72h; a lower Z score goes with more inhibition). Conditions: timepoint 72 hour.
Type: functional, Erythrocyte
`Cc1ncsc1CCN(C)C[C@H](C)N1CCOCC1` was tested, and the “% Inhibition” value was -11% and the Z score was 2.13.
`CN(C)c1ccnc(CNC(=O)Nc2ncc(C(F)(F)F)s2)c1` was tested, and the “% Inhibition” value was 2% and the Z score was -0.3.
In the case of `C=CCN1CC(C(=O)NCCc2ccc(OC)cc2)CCC1c1ccccc1` (centres undefined), the “% Inhibition” value is reported as 5% and the Z score is reported as -0.78.
With `C=CCn1cc(CN[C@@H](CCC)c2nccn2C)c(C)n1` the “% Inhibition” value was -9% and the Z score was 1.85.
In the case of `Cc1nc(-c2cccc(NC(=O)Cc3c(C)noc3C)c2)cs1`, the “% Inhibition” value is reported as 17% and the Z score is reported as -2.
In the case of `CC(C)(C)OC(=O)NCC1(c2nc(-c3ccncc3)no2)CCCC1`, the “% Inhibition” value is reported as 7% and the Z score is reported as -0.72.
With `Cc1nc(C#N)c(C#N)n1Cc1ccccn1` the “% Inhibition” value was -7% and the Z score was 1.35.
With `CN1CCCC[C@@H]1CN1CCN(S(=O)(=O)c2cccs2)CC1` the “% Inhibition” value was -12% and the Z score was 1.54.
With `COCCc1noc([C@@H]2CCCN2C(=O)c2ccc(C#CC(C)(C)O)cc2)n1` the “% Inhibition” value was -14% and the Z score was 1.87.
With `CN1CCCC1C1CCCN1C(=O)C1COc2ccccc2C1` (centres undefined) the “% Inhibition” value was -8% and the Z score was 1.07.
`COCCc1nsc(Oc2cc(F)ccc2C)n1` was tested, and the “% Inhibition” value was -8% and the Z score was 1.08.
With `CCOC(=O)CCNS(=O)(=O)C1CCOC(C(F)(F)F)C1` (centres undefined) the “% Inhibition” value was -3% and the Z score was 0.56.
With `CCOc1ncccc1C(=O)Nc1ccccc1-c1ccccc1` the “% Inhibition” value was -6% and the Z score was 0.47.
With `CN1CCC2C(CCCN2C(=O)Nc2cc(Cl)ccc2Cl)C1` (centres undefined) the “% Inhibition” value was -15% and the Z score was 2.88.
In the case of `Cn1cc(S(=O)(=O)N[C@H]2CCN(c3ccc4nncn4n3)C2)cn1`, the “% Inhibition” value is reported as -13% and the Z score is reported as 2.08.
For `O=C(N[C@H]1CCCC[C@@H]1OCc1ccccc1)c1n[nH]c2c1CCCC2`, the “% Inhibition” value was -1% and the Z score was 0.13.
With `C[C@@H](COc1ccccc1)N1CCC(CCC(=O)NCc2ccc(F)cc2)CC1` the “% Inhibition” value was -5% and the Z score was 0.64.
For `COc1cc(N[C@@H](C)C(=O)NCC(F)(F)F)cc(OC)c1OC`, the “% Inhibition” value was -8% and the Z score was 0.98.
`NC(=NO[C@H]1CCN(C2CCOCC2)C1=O)c1ccc(F)cc1` was tested, and the “% Inhibition” value was -5% and the Z score was 0.81.
In the case of `CC[C@H](Nc1ccc(CS(=O)(=O)C(C)C)cc1)C(N)=O`, the “% Inhibition” value is reported as -7% and the Z score is reported as 1.23.
In the case of `O=C(N[C@H](c1ccccc1)c1cc2ccccc2o1)c1cnccn1`, the “% Inhibition” value is reported as -3% and the Z score is reported as 0.49.
`CCO[C@H]1[C@H](NC(=O)c2ccccc2OC)c2ccccc2C12CCNCC2` was tested, and the “% Inhibition” value was 2% and the Z score was -0.31.
With `CCC[C@H](C)c1nc(N2CCN(C(=O)Cc3ccc(OC)cc3)CC2)c2c(C)nn(-c3ccc(F)cc3)c2n1` the “% Inhibition” value was -9% and the Z score was 1.35.
For `COc1cc(Cl)c(C)cc1-n1ccnc(NCCCc2ccccc2)c1=O`, the “% Inhibition” value was -2% and the Z score was 0.18.
`Cc1noc(C)c1CC(=O)N1CC(c2ncc(C)n2Cc2ccccc2)C1` was tested, and the “% Inhibition” value was -5% and the Z score was 0.63.
`O=C(Nc1cnc(Oc2ccccc2)nc1)c1cnccn1` was tested, and the “% Inhibition” value was -6% and the Z score was 1.22.
With `CCc1cnc(C)nc1NC[C@H]1CCCN(CCO)C1` the “% Inhibition” value was -8% and the Z score was 1.5.
In the case of `Cn1c(=O)[nH]c(=O)c2c1nc(N1CCCCCC1)n2C[C@H](O)c1ccccc1`, the “% Inhibition” value is reported as 1% and the Z score is reported as -0.09.
`Cc1cc(=O)c2cccc(C(=O)N3CCC(O)CC3)c2[nH]1` was tested, and the “% Inhibition” value was 8% and the Z score was -1.5.
`COc1cccc(CN2CC[C@@]3(C2)C(=O)N(CC(N)=O)c2ccccc23)c1` was tested, and the “% Inhibition” value was 6% and the Z score was -1.16.
`CC(=O)Nc1c2n(c3ccccc13)C[C@@](C)(C(=O)NC1CCCCCC1)N(C1CCC(C)CC1)C2=O` (some centres undefined) was tested, and the “% Inhibition” value was -8% and the Z score was 0.74.
With `Cn1c(CN2CCO[C@H](c3cccnc3)C2)cc2ccccc21` the “% Inhibition” value was -6% and the Z score was 0.76.
For `CS(=O)(=O)N1CCC[C@H](CNC(=O)Nc2ccc(-c3ccco3)cc2)C1`, the “% Inhibition” value was -19% and the Z score was 3.04.
With `O=C1C(=O)N(C2CCCCC2)C(=O)N1C1CCCCC1` the “% Inhibition” value was -17% and the Z score was 2.16.
In the case of `CC1CCN(C(=O)c2cc(NC(=O)c3cc(C(F)(F)F)cc(C(F)(F)F)c3)ccc2N2CCC(C)CC2)CC1`, the “% Inhibition” value is reported as -13% and the Z score is reported as 2.53.
`Cc1ccc(-c2nc(Cn3nnc(-c4nc(-c5ccc(Cl)cc5)no4)c3C)c(C)o2)cc1` was tested, and the “% Inhibition” value was 2% and the Z score was -0.23.
For `CN1CCN(C(=O)C2C3C(=O)N(CCOc4ccccc4)C[C@@]34C=C[C@@H]2O4)CC1=O` (some centres undefined), the “% Inhibition” value was -10% and the Z score was 1.33.
`Cc1c(S(=O)(=O)NCc2cccn2Cc2ccccc2)cnn1C(F)F` was tested, and the “% Inhibition” value was 2% and the Z score was -0.2.
For `CC(NC(C)C(O)Cc1ccccc1)c1ccco1` (centres undefined), the “% Inhibition” value was 2% and the Z score was -0.16.
`CCOc1ccc(S(=O)(=O)N(C)C)cc1NC(=O)Nc1cnn(CC(C)C)c1` was tested, and the “% Inhibition” value was -9% and the Z score was 0.94.
For `COCCn1nnc2cc(S(=O)(=O)N3CCC[C@H](C(=O)NCc4ccccc4F)C3)ccc21`, the “% Inhibition” value was -15% and the Z score was 2.38.
With `O=C(NCC1(CN2CCCC2)CC1)[C@H](O)C1CCCCC1` the “% Inhibition” value was 5% and the Z score was -0.71.
With `O=C(COc1cccc(Cl)c1)c1ccc2c(c1)N(Cc1nc(C(=O)NCC3CC3)co1)C(=O)CO2` the “% Inhibition” value was -8% and the Z score was 0.95.
In the case of `Cc1cc(C(=O)N2CCC[C@H](c3nc(-c4ccc(F)cc4)no3)C2)cnn1`, the “% Inhibition” value is reported as -4% and the Z score is reported as 0.64.
`O=C1c2ccccc2C(=O)N1n1c(COc2ccccc2)nc2ccccc2c1=O` was tested, and the “% Inhibition” value was -41% and the Z score was 4.8.
In the case of `CC[C@H](NC(=O)c1cnc2ccccn2c1=O)c1ccc(S(C)(=O)=O)cc1`, the “% Inhibition” value is reported as 0% and the Z score is reported as 0.05.
`Fc1cccc(-c2cc3c(N4CCOCC4)nccn3n2)c1` was tested, and the “% Inhibition” value was 11% and the Z score was -1.25.
For `Cc1cccc(NC(=O)c2cccc(Nc3nc(-c4ccccc4)c4cc(Br)ccc4n3)c2)c1`, the “% Inhibition” value was -7% and the Z score was 1.22.
With `Cc1ccc(-c2cc(NCc3ccncc3)nc3[nH]ccc23)c(C)n1` the “% Inhibition” value was -14% and the Z score was 1.4.
`CCC1Oc2cc(S(=O)(=O)N3CCCC(C(=O)NCc4cccnc4)C3)c(C)cc2NC1=O` (centres undefined) was tested, and the “% Inhibition” value was -14% and the Z score was 1.68.
`Cc1nc2nc(C3CCCCC3)nn2c(C)c1CC(=O)Nc1ccccc1` was tested, and the “% Inhibition” value was -11% and the Z score was 1.31.
`CC(C)n1c(=O)sc2cc(NS(=O)(=O)c3cccc(F)c3)ccc21` was tested, and the “% Inhibition” value was -1% and the Z score was 0.13.
